In test [1] the target is HA-NS5A (HCV JFH-1 nonstructural protein 5A), full-length NS5A (HCV genotype 2a, strain JFH-1) (UniProt Q99IB8). As to the kind of experiment: co-IP; HEK293T cells co-transfected (calcium phosphate, 36 h); lysate incubated with the indicated tag antibody or control IgG, then protein A/G agarose; washed with 15 mM Tris pH 7.5, 500 mM NaCl, 2 mM EDTA, 0.5% Triton X-100; western blot. In general terms: Immunoblotting shows a protein as a band on a membrane.

Sequences of proteins named here, by UniProt entry; tags and fusion partners are left off. Residues count along the entry.
Flag-E1 (HCV JFH-1 E1), full-length E1 (Q99IB8, residues 192-383): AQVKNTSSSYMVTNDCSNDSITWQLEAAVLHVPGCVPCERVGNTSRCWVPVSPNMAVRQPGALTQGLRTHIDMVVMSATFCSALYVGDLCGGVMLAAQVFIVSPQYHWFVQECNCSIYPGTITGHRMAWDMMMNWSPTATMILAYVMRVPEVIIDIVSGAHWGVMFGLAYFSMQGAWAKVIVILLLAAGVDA
HA-NS5A (HCV JFH-1 nonstructural protein 5A), full-length NS5A (Q99IB8, residues 1977-2442): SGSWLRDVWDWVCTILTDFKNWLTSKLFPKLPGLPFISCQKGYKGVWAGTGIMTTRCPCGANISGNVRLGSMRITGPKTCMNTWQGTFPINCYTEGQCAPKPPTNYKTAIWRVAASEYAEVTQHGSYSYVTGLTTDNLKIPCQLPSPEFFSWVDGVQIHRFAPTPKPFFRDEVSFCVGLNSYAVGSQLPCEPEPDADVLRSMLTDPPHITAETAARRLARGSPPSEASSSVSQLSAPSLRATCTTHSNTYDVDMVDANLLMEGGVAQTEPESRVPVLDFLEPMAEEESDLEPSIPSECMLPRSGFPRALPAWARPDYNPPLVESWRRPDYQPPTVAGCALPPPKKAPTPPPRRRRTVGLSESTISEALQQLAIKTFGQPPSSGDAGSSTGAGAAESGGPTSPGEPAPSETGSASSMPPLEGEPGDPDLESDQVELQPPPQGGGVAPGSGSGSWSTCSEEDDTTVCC
UniProt Q6PJ21: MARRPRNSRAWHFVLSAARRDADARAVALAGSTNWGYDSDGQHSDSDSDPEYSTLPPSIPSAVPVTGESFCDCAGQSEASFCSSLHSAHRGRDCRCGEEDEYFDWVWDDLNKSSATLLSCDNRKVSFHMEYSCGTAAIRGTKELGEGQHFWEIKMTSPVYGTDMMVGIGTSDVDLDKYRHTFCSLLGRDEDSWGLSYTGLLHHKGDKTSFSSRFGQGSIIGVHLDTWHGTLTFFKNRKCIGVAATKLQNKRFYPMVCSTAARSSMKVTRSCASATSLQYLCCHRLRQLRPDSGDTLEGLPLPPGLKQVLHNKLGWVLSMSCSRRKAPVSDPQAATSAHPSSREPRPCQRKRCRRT

Test [2] has as its target T1, endogenous SPSB2 (human (endogenous in Huh7.5.1)) (UniProt Q99619).
T1 sequence: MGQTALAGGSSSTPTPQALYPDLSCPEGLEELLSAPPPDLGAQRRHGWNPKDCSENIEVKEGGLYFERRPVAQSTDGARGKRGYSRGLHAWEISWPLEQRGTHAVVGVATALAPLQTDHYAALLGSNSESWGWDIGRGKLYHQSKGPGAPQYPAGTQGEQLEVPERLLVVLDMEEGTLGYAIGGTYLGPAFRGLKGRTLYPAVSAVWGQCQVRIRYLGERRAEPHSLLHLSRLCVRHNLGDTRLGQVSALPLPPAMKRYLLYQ
As to the kind of experiment: co-IP; endogenous: Huh7.5.1 cells infected with HCV JFH-1 for 96 h; lysate immunoprecipitated with mouse anti-SPSB2 MAb or control mouse IgG; western blot with anti-NS5A and anti-SPSB2.

Test [3] deals with HA-NS5A (HCV JFH-1 nonstructural protein 5A), full-length NS5A (HCV genotype 2a, strain JFH-1) (UniProt Q99IB8). As to the kind of experiment: co-IP; HEK293T cells co-transfected (calcium phosphate, 36 h); lysate incubated with the indicated tag antibody or control IgG, then protein A/G agarose; washed with 15 mM Tris pH 7.5, 500 mM NaCl, 2 mM EDTA, 0.5% Triton X-100; western blot. This is another data set of the same source.

In test [4] the target is GFP-NS5A (HCV JFH-1 nonstructural protein 5A fused to green fluorescent protein) (HCV genotype 2a, strain JFH-1) (UniProt Q99IB8). The test is described as above.
Test [5] has as its target GFP-E1 (HCV JFH-1 envelope protein E1 fused to green fluorescent protein) (HCV genotype 2a, strain JFH-1) (UniProt Q99IB8). The test is described as above.
In test [6] the target is Flag-E1 (HCV JFH-1 E1), full-length E1 (HCV genotype 2a, strain JFH-1) (UniProt Q99IB8). The test is described as above.
Test [7] concerns the target HA-NS5A (HCV JFH-1 nonstructural protein 5A), full-length NS5A (HCV genotype 2a, strain JFH-1) (UniProt Q99IB8). The experiment in a line: co-IP; Huh7 cells co-transfected for 48 h; lysate immunoprecipitated with anti-HA, anti-Flag or anti-Myc antibody; western blot.
Test [8] concerns the target Flag-E1 (HCV JFH-1 E1), full-length E1 (HCV genotype 2a, strain JFH-1) (UniProt Q99IB8). Described as above.

No constants are given. Whether binding was seen depends on the method and setting. Binding seen in cells or lysates may run through a third protein. Some results given as binding are weak or reduced against the parent protein; the word gives no strength. For part of these data: Sequences can lack the tags named with a protein.

Consider “SPSB2-SPRYD1 (1-122aa), N-terminal portion of SPSB2 (from UniProt Q99619 1-122) (domain or fragment)”, for which the binding result in test [1] was “no binding”.

For “SPSB2-DSPRYD1 (123-263aa) (from UniProt Q99619 123-263) (domain or fragment)”, the binding result in test [1] is “binds”.

With “NS5A made by HCV JFH-1 infection (from UniProt Q99IB8 1977-2442)”, in test [2], the binding result is “binds”.

As for Myc-SPSB3 (from UniProt Q6PJ21 1-355), the binding result in test [1] is “binds”.

“SPSB2-SPRYD2 (123-221aa), C-terminal portion of the SPSB2 SPRY domain (from UniProt Q99619 123-221) (domain or fragment)”: the binding entry in test [1] is reported as “binds”.

B1: Myc-SPSB4 (protein, UniProt Q96A44 1-273)
chain: MGQKLSGSLKSVEVREPALRPAKRELRGAEPGRPARLDQLLDMPAAGLAVQLRHAWNPEDRSLNVFVKDDDRLTFHRHPVAQSTDGIRGKVGHARGLHAWQINWPARQRGTHAVVGVATARAPLHSVGYTALVGSDAESWGWDLGRSRLYHDGKNQPGVAYPAFLGPDEAFALPDSLLVVLDMDEGTLSFIVDGQYLGVAFRGLKGKKLYPVVSAVWGHCEVTMRYINGLDPEPLPLMDLCRRSIRSALGRQRLQDISSLPLPQSLKNYLQYQ
As to B1, the binding result in test [3] is on record as “binds”.

B2: Myc-SPSB2 (SPRY domain- and SOCS box-containing protein 2), full-length (protein, UniProt Q99619 1-263)
chain: T1 sequence
Turning to B2, the binding entry in test [4], in test [3], in test [5], in test [6], in test [7] and in test [8] was “binds” each time.

The record behind these values is paper PMC6657855.
